Data published in the supplement of paper PMC3334620.
The full ranking holds about 33,000 sequences; the median of “E-score (-0.5 to 0.5)” is about -0.013, and the highest 2% start at about 0.3. The list shows a part of the results.

What follows are sequences tested against T1, Msn1 (UniProt P22148) (assay: PBM E-score (8-mer binding enrichment) (E-score (-0.5 to 0.5)); higher = stronger / more preferred TF binding; most listed sequences are background and not binding sites). Settings: protein concentration: 200 nM; construct: GST-full length.
T1 sequence: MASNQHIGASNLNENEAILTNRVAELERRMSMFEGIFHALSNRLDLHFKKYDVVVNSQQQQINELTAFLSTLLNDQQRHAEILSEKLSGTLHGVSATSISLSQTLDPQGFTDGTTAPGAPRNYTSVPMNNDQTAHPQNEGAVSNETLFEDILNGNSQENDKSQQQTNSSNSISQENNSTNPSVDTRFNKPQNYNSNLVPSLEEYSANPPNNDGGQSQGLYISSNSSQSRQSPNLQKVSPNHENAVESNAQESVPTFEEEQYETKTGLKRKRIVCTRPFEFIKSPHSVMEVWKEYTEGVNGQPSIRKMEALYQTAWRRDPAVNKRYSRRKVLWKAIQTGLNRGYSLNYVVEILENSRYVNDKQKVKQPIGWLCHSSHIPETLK
Summary of the method: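 Universal all-10-mer Agilent arrays, double-stranded by primer extension on fresh or once-stripped slides, were probed with about 100-200 nM GST-tagged yeast transcription factors made by PURExpress. Fluorescent anti-GST detected bound protein, and masliner normalised the scans. E-scores from the Universal PBM Analysis Suite were given to each ungapped eight-base word pooled with its reverse complement.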

Sequence | PBM E-score
CCGACCGC | -0.316
TAGGACGA | 0.135
ACGCGTCA | 0.184
GTCTGACA | 0.121
AAGTGGCC | -0.29
ATTGCGTA | 0.0558
ATAGCTAT | -0.108
CATCCGCG | 0.192
AATGACGT | -0.0245
AAGTACTA | 0.199
TGATCCAA | -0.0438
ACTATACA | 0.0458
TAATATGA | 0.167
CGAGGGTA | -0.173
ATAAGGAT | 0.161
CGTAATGA | -0.0929
CTTGAAGA | -0.0785
ACAGCTTA | 0.0798
CGGCATCA | 0.0925
GCTGGTAA | -0.181
AGTAGTTA | -0.0855
GTAAAACA | -0.195
CTCGAGAA | 0.133
ATGCTAGG | -0.0818
CGCTATGA | 0.0946

Sequence | PBM E-score
AGTCGGAT | 0.123
CGAGCCCA | -0.221
ACCGCTAC | -0.215
AGTCGCCC | -0.151
CGGCGTCC | 0.00251
CAATGAGC | 0.0523
AAGTCATT | -0.0134
AGAGGTAG | -0.163
TATAAAAA | 0.318
GGTGATGA | 0.0664
CAACACCA | -0.0253
AAACGAAC | 0.0897
CGCTACCA | -0.176
GGAGATGA | -0.0581
TACGAGCA | -0.0169
GTTGCTGA | -0.0728
CCTTTTCC | -0.0977
ACAAACAC | 0.337
CATCAACC | 0.106
CATTTTGC | 0.0966
GGTCAACA | 0.173
AGGGATAC | -0.144
AACCAGCG | 0.021
GTTCATGA | 0.196
CTCAATAC | 0.143

Sequence | PBM E-score
CATTAGCG | -0.0271
AGCGCATG | -0.0257
AGAGATGA | -0.0111
AGCAGAAA | 0.149
ATGCTCAG | 0.00121
ACTAGAAA | -0.026
AACCCAAC | -0.00573
GATTCCTA | -0.146
TAGTCCCA | 0.0594
ACTTTGAC | 0.203
ATGAAGCA | -0.0372
CGAATCCA | -0.0683
ATTTAAGC | 0.195
GTGCATTA | 0.0257
GCAGCCTA | -0.0732
TGTATACA | 0.261
GGCACCTA | -0.21
AGCATCTA | -0.17
CACATCGG | 0.0607
AAACATTG | -0.00791
AGTCGAGC | -0.201
AGTAATTC | 0.0549
AGAGAATA | 0.184
ACACCCAG | -0.123
TCCCTTCA | -0.0408

Sequence | PBM E-score
AACATCGG | 0.0605
AATAAGGG | 0.0173
CTATCCAA | -0.187
CTGTCCTC | 0.197
GACGTAGC | -0.0574
ACGCTACG | -0.0487
GTCAGGTA | -0.0461
ATAGAGCA | -0.102
GTATGTGA | 0.0957
CGTAAACA | 0.114
CATATGTA | 0.245
GGACCAAC | -0.114
TAGCTTCA | -0.119
CGACATGA | 0.207
AGCTGACG | -0.156
ATATTCTA | 0.07
TAGTGATA | -0.167
CTACTTCC | -0.0321
AAATGGGC | 0.0265
CGAGGTAC | 0.0203
CTTCATTA | 0.0655
CAGTACGC | -0.0992
CTGACTCA | -0.0338
ATAGTTTC | -0.111
ACTAGATA | 0.0228

Sequence | PBM E-score
CAATGTGG | 0.111
CCTAGGAA | 0.13
ATAAAGTG | 0.154
CTGAAGCC | -0.195
AATGGAAT | 0.238
CCTTTACG | 0.0807
GATGTCTA | 0.239
CAGTCGAA | -0.161
AAGTTATT | 0.0732
GGCCATCA | 0.058
ACCTTCAT | -0.0814
ACGCTAAA | -0.0302
GATCTGAA | -0.0317
ATTTTGTC | 0.468
GGCGAGAC | -0.0776
GCCTCTAA | -0.175
CGATAACC | 0.0193
CCTTTCCA | -0.12
ATCCATCA | -0.196
GGTCAGAC | -0.0518
AATACTCC | -0.0911
CAGTGCCC | -0.0952
CTTATCCC | -0.042
CGTCGGGC | -0.157
GAACTAAC | -0.0107

Sequence | PBM E-score
AACTGGAT | 0.0657
AATCTATC | -0.019
ACTGAGGC | 0.0565
CTGCCCGC | 0.0264
GCACGGGA | -0.12
GACCTTTA | 0.0307
GAAGCGTA | -0.176
CGGTTATA | 0.069
AACATCTT | 0.091
AGCATCGA | 0.0817
TGTGCGAA | -0.0498
ACCAGGCG | -0.245
GAAGTCTA | 0.0524
ATGCAAGA | 0.035
AGGATAAT | -0.00869
GCAATGAC | 0.0919
TCCCACAA | 0.0769
CGGTAGTC | -0.00298
AAAACATT | 0.133
CCATTAAG | -0.0405
CGTCGAGA | 0.0856
AATAACTA | 0.152
GACGTGGC | -0.185
CGGAGTAA | 0.0604
AGAAATAT | 0.181

Sequence | PBM E-score
ATTAAAAT | 0.273
TAATAAGA | 0.0818
CTTATTCA | 0.0853
CGGGACTC | 0.0112
ATCCCTGG | -0.198
AACATCGC | -0.0399
GCTTTGGA | 0.161
AATTGGAT | 0.157
CAACTCCA | -0.00874
CAAGTAGG | -0.0827
GACCTCTA | -0.102
AAACACGC | 0.106
ACGTCGCG | 0.138
GTCATAAA | 0.275
GACGATCA | -0.139
ATCCGCGC | 0.0649
TCCGCAGA | 0.123
AATCTCGG | 0.157
GATCAACA | 0.00359
CGTGAGAC | -0.0355
AAACCTGG | 0.0187
CACGAGCA | -0.15
